56 molecules from PubChem BioAssay AID463173 (ICCB-Longwood Screening Facility, Harvard Medical School, 2010) can be followed below.

In all, about 52,000 compounds went through this assay and about 4,300 (8.3%) were called active. No stated cut-off is given here; in the data, active means survival mostly below about 52% (no sharp cut-off); inactive means mostly above about 56%. This is one part of the list.

This assay relates to DeltatarO mutant. The experiment in a line: S. aureus survival, RN4220 and DeltatarO strains – OD600, teichoic acid synthesis inhibitors, primary screen (AID 463173). As to conditions: S. aureus RN4220 wild type/DeltatarO growth, OD600, 18 h, active compounds read low, screened at 18.75 µg/mL (by protocol).
Regarding `c1ccc(OCCSC2=NCCN2)cc1`, the survival was inactive: 72%. As for `N#Cc1nc(-c2ccc(COc3ccccc3)o2)oc1N1CCN(c2ccccc2)CC1`, the figure is inactive: 60%; as for `CCc1ccc(CNC(=O)c2cnc3sc(N4CCOCC4)nn3c2=O)cc1`, inactive: 78%. As for `Cc1cccc(OC(=O)c2cc(-c3ccc(C)c(C)c3)on2)c1`, the figure is active: -2%. Turning to `O=C1CCSC2(C(=O)N(Cc3ccc(F)cc3)c3ccccc32)N1c1ccc(Cl)cc1` (stereo unspecified), the survival is inactive: 101%. As for `COc1ccc(Cl)cc1NC(=O)N1CCN(Cc2cc(=O)n3nc(-c4ccccc4)sc3n2)CC1`, the figure is inactive: 94%.

Regarding `O=C(Nc1cccn(Cc2ccccc2)c1=O)NC1CCCCC1`, the survival is inactive: 82%.

For the molecule `COc1ccccc1CNC(=O)C(C)n1c(=O)cc(-c2ccccc2)c2c(C)nn(C)c21` (stereo unspecified), the survival was inactive: 84%. For the molecule `CCOC(=O)Cn1c(=O)oc2cc(S(=O)(=O)N3CCN(c4cccc(C)c4)C(C)C3)ccc21` (stereo unspecified), the survival was inactive: 71%. For `CC(=O)Nc1ccc2nc3c(=O)n(C)c(=O)n(C)c3nc2c1C` the value was inactive: 80%; for `Cc1[nH]n(-c2nc(-c3ccccc3)cs2)c(=O)c1N=Nc1ccc(O)cc1`, inactive: 54%. As for `CCSc1nsc(NC(=O)Nc2cccc(OC)c2)n1`, the figure is inactive: 96%; as for `CC(C)c1nn2c(=O)cc(COC(=O)c3cccs3)nc2s1`, inactive: 75%; as for `CCCCNC(=O)c1c(N)no[n+]1[O-]`, inactive: 83%. For `COc1ccc(C)cc1NS(=O)(=O)c1c(C(=O)N2CCC(C)CC2)c(C)n(C)c1C` the value was inactive: 89%; for `COC(=O)c1ccc(NC(=O)CCCC(=O)OCC(=O)c2ccc(Cl)cc2)cc1`, inactive: 92%; for `Cc1ccc(-c2noc(-c3ccc(N4CCN(C)CC4)c([N+](=O)[O-])c3)n2)cc1`, inactive: 85%. As to `O=C(COc1ccccc1)NCC(c1ccc(Cl)cc1)N1CCOCC1` (stereo unspecified), the survival was inactive: 68%. Consider `Cc1ccc(NC(=O)c2oc3ccc4c(c3c2C)C(=O)CC(C)(C)O4)c(C)c1`, for which the survival was inactive: 83%. For `COc1ccc(CCNC(=O)c2cccc(Nc3nc4ccccc4nc3-n3nc(C)cc3C)c2)cc1OC` the value was inactive: 91%; for `O=C(CSc1n[nH]c(-c2ccc(F)cc2)n1)NCc1ccccc1Cl`, inactive: 73%; for `COc1ccc(C2C=C(c3ccc(Cl)cc3)Nc3nc(-c4ccc(Cl)cc4)nn32)cc1` (stereo unspecified), active: 38%. For `CCOc1c(Br)cc(C2CC(=O)Nc3cc4c(cc32)OCO4)cc1OC` (stereo unspecified) the value was inactive: 127%; for `CCCS(=O)(=O)Nc1cccc(-c2cn3ccc(C)cc3n2)c1`, inactive: 62%; for `CCOc1ccc2c(c1)c(=O)c(S(=O)(=O)c1ccc(F)cc1)cn2CC(=O)Nc1ccccc1C`, inactive: 96%. As for `NC1=NC(c2cccc(Cl)c2)n2c(nc3ccccc32)N1` (stereo unspecified), the figure is inactive: 79%; as for `CCOC(=O)c1cnn(-c2ccc(C(=O)Nc3ccc(C(C)=O)cc3)cc2)c1N`, inactive: 102%; as for `Cc1ccc(-c2csc(NC3OC(=O)c4c#cccc43)n2)cc1` (stereo unspecified), inactive: 94%. For the molecule `COc1cc2cc(CNc3ccccc3)c(=O)n(CC(=O)Nc3ccc(C)c(Cl)c3)c2cc1OC`, the survival is inactive: 78%. For `CCOC(=O)c1c(S(=O)(=O)N2CCCC(C(=O)NCc3cccc(C)c3)C2)c(C)n(C)c1C` (stereo unspecified) the value was inactive: 91%; for `COCCN(Cc1ccco1)C(=O)c1cc2c(=O)[nH]c3ccc(C)cc3c2s1`, inactive: 53%. For `CN(Cc1ccccc1)S(=O)(=O)c1ccc(NC(=O)c2cc(=O)c3ccccc3o2)cc1` the value was inactive: 65%; for `CC(C)(C)NC(=O)CSc1nnc(Cc2ccc3c(c2)OCO3)n1C1CCCCC1`, inactive: 90%; for `CCc1cccc(C)c1NC(=O)CN1C(=O)C2(SCC(=O)N2c2cccc(F)c2)c2ccccc21` (stereo unspecified), inactive: 107%. As for `Cc1ccccc1OCC(=O)NCC(c1ccc(Cl)cc1)N1CCCCC1` (stereo unspecified), the figure is inactive: 66%. For the molecule `Cn1ncc2c(N3CCN(c4ccccc4F)CC3)ncnc21`, the survival was inactive: 99%. As for `COc1ccc(C)cc1NC(=O)Nc1cccc(OCc2cc(=O)n3ccc(C)cc3n2)c1`, the figure is inactive: 94%; as for `CCOc1ccc(/C=C/c2nc(C#N)c(NC(C)c3ccccc3)o2)cc1` (stereo unspecified), inactive: 69%; as for `COc1ccc(C(=O)CC2(O)C(=O)N(Cc3cccc(C(F)(F)F)c3)c3ccccc32)cc1` (stereo unspecified), active: 33%. Consider `CC(=O)N1CCc2cc(Br)cc(S(=O)(=O)N3CCC(C(=O)Nc4ccc(C(C)C)cc4)CC3)c21`, for which the survival is inactive: 152%. As for `COc1cccc(C(=O)N2c3ncnn3C3(CCCCC3)[C@@H]3CCCC[C@@H]32)c1`, the figure is inactive: 89%; as for `COc1ccc(N2CCN(S(=O)(=O)c3ccc(-c4ccno4)cc3OC)CC2)cc1`, active: 6%; as for `CCCCc1ccc(NC(=O)c2ccc3c(c2)CCN3S(=O)(=O)CC)cc1`, active: 38%. As for `COc1ccc(CNC(=O)C(C)n2nc(C)c3c(C)n(-c4ccccc4)nc3c2=O)c(OC)c1` (stereo unspecified), the figure is inactive: 144%; as for `CC(C(=O)Nc1ccc(OC(F)(F)F)cc1)N1Cc2ccccc2C1=O` (stereo unspecified), active: 20%; as for `Cc1oc(-c2ccccc2F)nc1CN1CCC(C(=O)NCCc2ccccc2)CC1`, inactive: 89%.

With `CCCCn1cc(S(=O)(=O)c2cc(C)ccc2C)c(=O)c2cc(F)c(F)cc21`, the survival is inactive: 91%. Take `CCOC(=O)c1cccc(NC(=O)c2oc3c(c2C)-c2nn(CC)cc2CC3)c1`: the survival was inactive: 75%. For `Cc1c(Cl)cccc1-n1ncc(C(=O)NC2CCCCC2)c1C1CCN(C(=O)OC(C)(C)C)CC1` the value was inactive: 94%; for `COc1ccc(Br)cc1[C@@H]1Nc2ccc(C(=O)O)cc2[C@@H]2C=CC[C@@H]21`, active: 36%. For `CCOc1ccc(CCNC(=O)CSc2nnnn2-c2ccccc2)cc1OCC` the value was inactive: 131%; for `Cc1ccc(CNC(=O)Cc2csc3ccccc23)cc1`, inactive: 93%; for `Cc1cccc(N2CCN(S(=O)(=O)c3cc(C(=O)Nc4ccc(Oc5ccccc5)cc4)ccc3F)CC2)c1C`, inactive: 75%. As for `COc1ccc(OC)c(Nc2sc(C(=O)c3ccccc3)c(N)c2S(=O)(=O)c2ccccc2)c1`, the figure is inactive: 76%; as for `Cc1ccccc1NC(=O)Cn1c(=O)n(CCc2ccccc2)c(=O)c2ccccc21`, inactive: 113%; as for `Cc1cccc(Nc2c(-c3ccsc3)nc3nc(C)cc(C)n23)c1`, inactive: 130%.
